SMILES strings stand for the structures. Counter-ions that a name gives are not always drawn. ± gives the standard deviation of the averaged measurements. Over roughly 2,000 compounds, “relative cell viability vs DMSO, compound alone” has its median near 1.1; the lowest 2% begin near 0.29. This is one part of the list.

The experiment relates to TE10. In words: relative cell viability vs DMSO, compound alone (fraction); TE10 is an esophageal squamous carcinoma line; higher = less cytotoxic. The conditions noted are these: 2 µM; 48 h. How it is done: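 TE10 ESCC cells (1,000/well, 384-well plates) were treated with Selleck bioactive library compounds at 2 uM alone for 48 h. Viability was read by CellTiter-Glo and expressed relative to DMSO wells. Two technical replicates (A, B).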
Regarding `OCCN1C[C@H](O)[C@@H](O)[C@H](O)[C@H]1CO` [Miglitol], the relative cell viability is 1.16 ± 0.064.

The molecule `COc1cc(/C=C/C(=O)CC(=O)/C=C/c2ccc(O)c(OC)c2)ccc1O` [Curcumin] displayed a relative cell viability of 0.893 ± 0.054. The result for `O=C(O)CSCC(=O)NC1CCSC1=O` (stereo unspecified) [Erdosteine] reads 0.991 ± 0.11; that for `Cc1cc2c(F)c(Oc3ncnn4cc(OC[C@@H](C)O)c(C)c34)ccc2[nH]1`, 0.948 ± 0.065. The result for `Nc1nc(O)c2ncn(CCC(CO)CO)c2n1` [Penciclovir] reads 1.06 ± 0.11; that for `Fc1ccc([C@@H]2CCNC[C@H]2COc2ccc3c(c2)OCO3)cc1` [Paroxetine HCl], 0.9899 ± 0.0077; that for `CN(C/C=C/C#CC(C)(C)C)Cc1cccc2ccccc12` [Terbinafine], 1.14 ± 0.02.

In the case of `CN(C/C=C/C#CC(C)(C)C)Cc1cccc2ccccc12` [Terbinafine HCl], the relative cell viability worked out at 1.09 ± 0.032.

`CN1CCN(c2ccc(OC(F)(F)F)c(Nc3ncc4c(n3)-c3c(c(C(N)=O)nn3CCO)CC4)c2)CC1` yielded a relative cell viability of 0.887 ± 0.031.

The molecule `CCCC(=O)OCOC(=O)C1=C(C)NC(C)=C(C(=O)OC)C1c1cccc(Cl)c1Cl` (stereo unspecified) [Clevidipine Butyrate] yielded a relative cell viability of 0.897 ± 0.12. `C[C@H]1COc2c(N3CCN(C)CC3)c(F)cc3c(=O)c(C(=O)O)cn1c23` [Levofloxacin] gave a relative cell viability of 1.03 ± 0.032.

`NC(CO)C(=O)NNCc1ccc(O)c(O)c1O` (stereo unspecified) [Benserazide HCl]: the relative cell viability was 0.799 ± 0.028. The result for `O=c1[nH]cnc2[nH]ncc12` [Allopurinol Sodium] reads 0.9331 ± 0.0065; that for `CN1CCN(C2CCN(C(=O)Nc3cc(Oc4ccc(NC(=O)C5(C(=O)Nc6ccc(F)cc6)CC5)c(F)c4)ccn3)CC2)CC1` [Golvatinib (E7050)], 1.21 ± 0.05; that for `C[N+](C)(C)CCO.[Cl-]` [Choline Chloride], 1.1377 ± 4.2e-05. The result for `CCOC(=O)[C@H](CCc1ccccc1)N[C@@H](C)C(=O)N1Cc2cc(OC)c(OC)cc2C[C@H]1C(=O)O` [Moexipril HCl] reads 1.03 ± 0.025; that for `COC(=O)c1ccc2c(C(=Nc3ccc(N(C)C(=O)CN4CCN(C)CC4)cc3)c3ccccc3)c(O)[nH]c2c1` [Nintedanib (BIBF 1120)], 0.998 ± 0.014; that for `Cn1cc(-c2ccc3nnc(Sc4ccc5ncccc5c4)n3n2)cn1`, 1.09 ± 0.14. The result for `Clc1ccc(Nc2nnc(Cc3ccncc3)c3ccccc23)cc1` [Vatalanib (PTK787) 2HCl] reads 1.16 ± 0.022; that for `Cc1cc(O)c2c(c1)C(=O)c1cc(O)cc(O)c1C2=O` [Emodin], 0.949 ± 0.07. In the case of `O=C1NC(=O)/C(=C/c2cccc(C(F)(F)F)c2)S1`, the relative cell viability stood at 1.1918 ± 0.00074.

Values taken from the supplement of paper PMC10670038.
